The full ranking holds about 33,000 sequences; the median of “E-score (-0.5 to 0.5)” is about -0.012, and the highest 2% start at about 0.29. The list shows a part of the results.
target: T1, Ybr033w (UniProt P38073); assay: PBM E-score (8-mer binding enrichment) (E-score (-0.5 to 0.5)); higher = stronger / more preferred TF binding; most listed sequences are background and not binding sites; details: protein concentration: 200 nM; construct: GST-full length
T1 sequence: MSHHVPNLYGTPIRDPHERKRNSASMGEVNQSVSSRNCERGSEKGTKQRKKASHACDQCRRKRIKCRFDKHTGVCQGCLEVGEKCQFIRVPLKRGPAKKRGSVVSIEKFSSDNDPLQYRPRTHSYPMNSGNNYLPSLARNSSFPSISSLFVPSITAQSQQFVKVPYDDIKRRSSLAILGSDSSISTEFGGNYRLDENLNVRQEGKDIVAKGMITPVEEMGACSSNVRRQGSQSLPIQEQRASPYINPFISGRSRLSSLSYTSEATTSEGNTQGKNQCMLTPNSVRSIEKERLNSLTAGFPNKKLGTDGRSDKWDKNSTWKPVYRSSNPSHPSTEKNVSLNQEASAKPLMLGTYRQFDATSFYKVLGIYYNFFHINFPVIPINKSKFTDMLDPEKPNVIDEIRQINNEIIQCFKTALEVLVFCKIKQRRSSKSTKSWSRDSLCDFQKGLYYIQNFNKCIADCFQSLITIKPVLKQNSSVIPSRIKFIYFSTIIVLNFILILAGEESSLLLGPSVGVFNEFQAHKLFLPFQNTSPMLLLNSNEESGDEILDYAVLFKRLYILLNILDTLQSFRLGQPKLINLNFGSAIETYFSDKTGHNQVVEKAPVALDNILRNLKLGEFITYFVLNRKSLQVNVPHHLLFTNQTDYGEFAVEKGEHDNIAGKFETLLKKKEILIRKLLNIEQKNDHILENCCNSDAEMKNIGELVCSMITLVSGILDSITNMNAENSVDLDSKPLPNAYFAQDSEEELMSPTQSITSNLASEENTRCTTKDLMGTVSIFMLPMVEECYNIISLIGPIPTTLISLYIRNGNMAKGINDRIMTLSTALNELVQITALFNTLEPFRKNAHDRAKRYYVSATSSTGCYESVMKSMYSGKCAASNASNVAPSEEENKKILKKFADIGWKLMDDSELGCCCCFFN
Method in brief: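 For each ungapped eight-base word taken together with its reverse complement, the Universal PBM Analysis Suite assigned an E-score. Binding data came from GST-tagged yeast transcription factors, applied at about 100-200 nM, on universal all-10-mer Agilent arrays made double-stranded by primer extension. Fluorescent anti-GST marked bound protein, and scans were normalised with masliner.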

Row | Sequence | PBM E-score
1 | AACTCGAT | 0.171
2 | GTAGCCAA | -0.0693
3 | CGCTGGCC | -0.378
4 | CCAGAGAG | -0.205
5 | AGCAGCTG | -0.0676
6 | CGAGAGTA | 0.171
7 | AGTATAAG | 0.173
8 | CGACAGTC | -0.282
9 | GTAGGCGA | -0.0699
10 | AAACCGTT | -0.0546
11 | AGGCTATC | -0.0433
12 | GTACTCAA | 0.1
13 | ACGTGGGA | -0.176
14 | AATTCGAT | 0.234
15 | AGAGGTTA | 0.018
16 | AATCACCG | -0.0481
17 | TGCCGAAA | -0.0214
18 | CCGCTATA | -0.0321
19 | AATAGGAA | 0.29
20 | CGATGCCC | -0.28
21 | AATTGGAA | 0.136
22 | CGGTGCGA | -0.213
23 | ATTGGAGA | 0.141
24 | CCAGACGG | -0.177
25 | ACAACTCA | 0.158

Row | Sequence | PBM E-score
26 | AACTACTG | 0.126
27 | CACGAGTA | 0.0368
28 | GGGGACAA | -0.102
29 | TCACATGA | -0.094
30 | GAATACGA | 0.192
31 | AGTTGCGC | 0.00203
32 | ATAGACAA | 0.118
33 | ATGGATAG | -0.0837
34 | AACAGGGT | -0.147
35 | CCCCTGCC | -0.247
36 | GATGAGGA | -0.183
37 | TATAGACA | 0.186
38 | GTATGAAA | 0.0652
39 | ATTCGAGC | 0.015
40 | AGGCGTTC | -0.362
41 | GGATTGAA | 0.161
42 | GGGGGTAA | -0.407
43 | GGGGGGGA | -0.479
44 | AAGTAACG | 0.0587
45 | ACAGGGTA | -0.0372
46 | AAGTTAGT | 0.21
47 | CCTGCGGA | -0.0513
48 | CAACATCA | 0.278
49 | TAGGTACA | -0.084
50 | CGCTGCCA | -0.246

Row | Sequence | PBM E-score
51 | AGCAGACG | -0.0872
52 | ACGTTTAT | 0.113
53 | CCACGATC | 0.106
54 | GTCTTTGA | -0.0431
55 | CGATAACG | -0.0436
56 | CATGCATC | -0.00805
57 | ACCAAAAT | 0.111
58 | CTCAAGTA | 0.0799
59 | ACCCCCCC | -0.41
60 | ACCCCGGC | -0.202
61 | CAGATACA | 0.135
62 | GATAACGC | -0.0882
63 | AGGCCAGC | -0.296
64 | TCTGACCA | 0.029
65 | CCTCGCAC | -0.00673
66 | AGCGCTCG | -0.215
67 | ACTCTGGG | -0.086
68 | AGCCGGCG | -0.199
69 | GTAGAGCA | -0.128
70 | TCCGTAAA | 0.0786
71 | ACACGACA | 0.191
72 | ACAACGAT | 0.122
73 | CCCTCGGA | 0.105
74 | CAGGCCGA | -0.0826
75 | CGACCCAG | -0.401

Row | Sequence | PBM E-score
76 | CTTCTCAC | -0.0123
77 | TGATACCA | 0.092
78 | AGACAAGC | -0.0962
79 | CTTCGGAC | 0.127
80 | CGTAGCAC | -0.0253
81 | AAACGCTC | -0.15
82 | AAATCGAC | 0.142
83 | TCGATGCA | -0.0719
84 | GAGAGATC | -0.00339
85 | AATTGGGT | 0.282
86 | CTGACGTC | -0.0676
87 | ATCGCCCA | -0.267
88 | ACATGGCT | -0.186
89 | ATGGATTA | 0.115
90 | AGTTGGTG | -0.0643
91 | CCTCATAA | 0.0859
92 | ACAACCAC | 0.0628
93 | CCACCGGA | 0.172
94 | GCGGCGAC | -0.257
95 | ATCATTGC | 0.0242
96 | ACAAGGCT | -0.274
97 | CTAACATC | 0.0315
98 | TACTCCGA | 0.134
99 | TACGTCGA | 0.00164
100 | CCACCGCG | 0.0359

Row | Sequence | PBM E-score
101 | AATCGTCC | 0.00041
102 | CCTGTCCA | -0.232
103 | CCAGTGAG | -0.171
104 | AAACGGAC | -0.102
105 | GAGCCTGC | -0.154
106 | CTTAAGAA | 0.0628
107 | CCAGCCTC | -0.348
108 | ATGAGCCC | -0.136
109 | GCGTTGGA | -0.13
110 | CTCATTCA | 0.0328
111 | CATTATAC | 0.155
112 | AAGGCGCC | -0.29
113 | TCATGTCA | -0.0696
114 | CCAAGTCC | -0.167
115 | TAAAGCCA | 0.094
116 | CTGGGATC | -0.156
117 | GCCCGGAA | 0.115
118 | CAGAATAG | -0.0154
119 | ACGTCCTG | -0.294
120 | AGTTTCGG | 0.119
121 | GAAACGCC | 0.0139
122 | TGCAGCAA | -0.0398
123 | GAGGCATC | -0.188
124 | AGACAGGA | 0.246
125 | CCGGGGGA | -0.341

Row | Sequence | PBM E-score
126 | ATGCAATG | 0.0594
127 | ATCGCTGC | -0.013
128 | CAAGCTGA | -0.0113
129 | GATGTTGA | 0.138
130 | CCCTGTGC | -0.152
131 | CTTCCTTA | 0.118
132 | AAGGGGCA | -0.254
133 | ACCCTACT | 0.0025
134 | GGGGTTTA | -0.28
135 | CAGTTGCC | -0.0398
136 | GCACAACC | -0.148
137 | CTGATCTC | -0.0253
138 | CAAATCTC | -0.0207
139 | AAATGGGT | 0.155
140 | ATTATGGA | 0.188
141 | AGTAACAT | 0.105
142 | AGACGTAG | -0.0365
143 | ATGGACGC | -0.107
144 | AGGGCACA | -0.0581
145 | GATCCTCA | 0.137
146 | ATGCCAGC | -0.246
147 | CAGTCTCA | 0.0785
148 | GGGATCCC | -0.182
149 | AGCATGAT | 0.0401
150 | CGCGAACG | -0.148

Row | Sequence | PBM E-score
151 | AGCTGACC | -0.0157
152 | AAACGATC | 0.181
153 | GAATAGGC | 0.106
154 | CGGCCTCC | -0.199
155 | ACCTACGC | 0.0248
156 | AAGGCCGA | -0.0472
157 | AATCTCCG | 0.013
158 | TGCCTGAA | 0.0649
159 | CTCCGATC | -0.0874
160 | ACTCACAG | 0.0756
161 | CTCGGCCC | -0.21
162 | AGGAATAG | 0.134
163 | GCTGGAAA | 0.158
164 | CATTTCAA | 0.242
165 | GAGGCATA | -0.0757
166 | ACTACTGA | -0.0231
167 | GAAGGTGA | 0.0517
168 | AGTGCTTC | -0.06
169 | AAAACTTC | 0.176
170 | GGGATGAA | -0.0863
171 | AGCATTAC | 0.015
172 | AAAGTATC | 0.262
